Results reported in PubChem BioAssay AID624417 (National Center for Advancing Translational Sciences (NCATS), 2012).
Hit rate of the full screen: of about 410,000 compounds, about 6,400 (1.6%) were called active. Inconclusive means that the source gave no clear call. Such entries were picked first, then a sample of the others. The call rests on the fitted dose curve; in most records, active means well fitted inhibition curve with a large enough effect; inconclusive means small, poorly fitted or top-dose-only effect; inactive means no such curve, though single readings can be large or run the other way. Where the call is inconclusive, the potency comes from a doubtful curve fit.

target: Glucagon-like peptide 1 receptor (Homo sapiens) (UniProt P43220); experiment: qHTS of GLP-1 Receptor Inverse Agonists (Inhibition Mode); details: HEK293 GLP-1R CRE-luciferase, luminescence, 24 h, GLP-1R form is constitutively active; series mostly up to 38.3 µM; further: nearly all actives have a fitted effect of over 55% in size
UniProt P43220, sequence (P43220 whole entry, looked up): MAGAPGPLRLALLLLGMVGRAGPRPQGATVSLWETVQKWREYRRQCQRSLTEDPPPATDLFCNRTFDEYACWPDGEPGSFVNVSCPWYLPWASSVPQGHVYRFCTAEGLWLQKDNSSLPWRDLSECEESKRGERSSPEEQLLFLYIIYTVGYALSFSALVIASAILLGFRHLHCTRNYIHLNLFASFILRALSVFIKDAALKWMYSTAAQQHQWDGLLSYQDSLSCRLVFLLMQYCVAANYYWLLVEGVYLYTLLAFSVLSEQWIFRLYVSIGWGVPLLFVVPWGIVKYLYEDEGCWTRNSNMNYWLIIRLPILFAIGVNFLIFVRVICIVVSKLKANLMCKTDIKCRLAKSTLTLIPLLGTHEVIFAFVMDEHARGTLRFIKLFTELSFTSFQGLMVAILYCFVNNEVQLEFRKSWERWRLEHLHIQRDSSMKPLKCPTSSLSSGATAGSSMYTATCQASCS
Method in brief: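 Assay principle: reduced luminescence from a cAMP-responsive reporter in HEK293 cells co-expressing a constitutively active GLP-1R. Conditions: 24 hr compound incubation, 37 deg C, 5% CO2.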
Potency means the concentration at half of the fitted maximal effect; tags describe the fitted curve by direction and shape.

Potency, inconclusive:
O=C(CSc1nnc(CN2CCCC2)n1-c1ccccc1)c1ccc2c(c1)OCO2 6.31 µM [inhibitor, partial curve, poor fit]
O=C(N/N=C/c1ccc2ncccc2c1)c1ccco1 8.91 µM [inhibitor, partial curve, poor fit]
Brc1ccccc1Cn1cnc2ccccc21 11.2 µM [inhibitor, single point]
CC[C@@H](C)[C@H](CN[C@H](CNC)C(C)C)NC[C@@H](C)c1ccc(CC(C)C)cc1 6.31 µM [inhibitor, partial curve, poor fit]
COC(=O)c1sccc1NC(=O)CSc1ccccc1NS(=O)(=O)c1ccc(Br)cc1 17.8 µM [inhibitor, partial curve, poor fit]
COc1cc(Cl)c(C)cc1NC(C)C(=O)Nc1cc(C(F)(F)F)ccc1N1CCOCC1 (stereo not given) 10 µM [inhibitor, partial curve, poor fit]
COc1cccc(CN2CCC(C(=O)NC(C)c3cccc4ccccc34)CC2)c1 (stereo not given) 10 µM [inhibitor, partial curve, poor fit]
Cc1cccc(Nc2cc(C)c3c(O)cccc3n2)c1C 7.94 µM [inhibitor, partial curve, poor fit]
CCCc1[nH]nc2c1C(c1ccc(OC)c(Cn3nc(C)c(Br)c3C)c1)C(C#N)=C(N)O2 (stereo not given) 12.6 µM [inhibitor, single point]
Cc1cccc(S(=O)(=O)Nc2nc3ccccc3nc2NCC2CCCO2)c1 (stereo not given) 8.91 µM [inhibitor, partial curve, poor fit]
O=C(Nc1ccc(-c2noc(CCc3ccccc3)n2)cc1)c1cccnc1 28.2 µM [inhibitor, single point]
Cc1nc2ccccc2c2oc(C(=O)N3CC(C)CC(C)C3)cc12 (stereo not given) 1.58 µM [inhibitor, partial curve, poor fit]
COC(=O)[C@@]1(Cc2ccccc2)[C@@H]2C(=CC(=O)[C@H]2CC(=O)C(=O)N(C)C)CN1C(=O)c1ccccc1 28.2 µM [inhibitor, single point]
O=S(=O)(N/N=C1/CCCc2ccccc21)c1ccc(Br)cc1 31.6 µM [inhibitor, partial curve, poor fit]
O=C1Nc2ccccc2/C1=C/c1ccccc1F 11.2 µM [inhibitor, partial curve, poor fit]
Cc1ccccc1NS(=O)(=O)c1ccc2[nH]cc(C(=O)NC(C)c3ccccc3)c(=O)c2c1 (stereo not given) 12.6 µM [inhibitor, single point]
C=CC[C@H](CC(=O)N[C@H](CO)Cc1ccccc1)C(=O)N[C@H](COC(=O)[C@H](CC=C)CC(=O)OC(C)(C)C)Cc1c[nH]c2ccccc12 3.98 µM [inhibitor, partial curve]
Nc1ccc2c(c1)C(=NO)c1cc([N+](=O)[O-])ccc1-2 12.6 µM [inhibitor, single point]
O=C(N/N=C/c1cc([N+](=O)[O-])ccc1O)/C(=C\c1cccs1)NC(=O)c1ccccc1 12.6 µM [inhibitor, single point]
Cc1ccc2c(CNCc3ccccc3)cc(=O)oc2c1 5.62 µM [inhibitor, partial curve, poor fit]
C#CCN(C[C@@H]1[C@@H](OC(=O)NC2CC2)[C@@H](OC(=O)NC2CC2)Cn2c(=O)ccc(=O)n21)S(=O)(=O)c1ccc(C)cc1 3.16 µM [inhibitor, partial curve]
CC1=C(c2ccc(F)cc2)S(=O)(=O)NC1=NCc1ccccc1F 17.8 µM [inhibitor, single point]
CC1(C(=O)NCc2ccc(C(F)(F)F)cc2)CCN1Cc1ccccc1OC(F)F (stereo not given) 10 µM [inhibitor, single point]
COc1cc(C2CC(=O)c3c([nH]c(C(=O)OCC4CCCCC4)c3C)C2)cc(OC)c1OC (stereo not given) 1 µM [inhibitor, full curve, poor fit]
CC(C)C[C@@H](CN1CCC[C@H]1CN1C(=O)C(=O)NC[C@@H]1Cc1ccccc1)N1C[C@H](Cc2ccc(O)cc2)N(CC2CCCCCC2)C(=O)C1=O 20 µM [inhibitor, single point]
COc1cc(NC(=O)CC(c2ccc(C)cc2)N2Cc3ccccc3C2=O)cc(OC)c1 (stereo not given) 28.2 µM [inhibitor, single point]
O=C(/C=C/c1ccccc1)N(c1ccccn1)C1CCCCC1 12.6 µM [inhibitor, partial curve, poor fit]
O=C(CN1CCN(c2ccc(F)cc2)CC1)Nc1ccccc1C(=O)NCCc1ccccc1 28.2 µM [inhibitor, single point]
O=C(c1ccccc1)C1CCN(C(=O)c2ccc(Cl)cc2)CC1 12.6 µM [inhibitor, single point]
O=C1[C@H](Cc2ccccc2)NCCCC[C@H](c2ccco2)N1Cc1ccccc1 28.2 µM [inhibitor, single point]
CCC(=O)N1CCN(c2ccccc2NC(=O)COc2cc(C)ccc2C(C)C)CC1 12.6 µM [inhibitor, single point]
Cc1ccc(C(C)C)c(OCC(=O)NNC(=O)Cc2ccc(S(=O)(=O)N3CCOCC3)s2)c1 10 µM [inhibitor, single point]
CCN(CC)c1ccc(Nc2nc(N3CCOCC3)c3ccccc3n2)cc1 28.2 µM [inhibitor, single point]
Cc1ccc(SCCC(=O)N2CCN(S(=O)(=O)c3ccccc3)CC2)cc1 10 µM [inhibitor, single point]
CN(C)c1cccc(NC(=O)c2cccc3ccccc23)c1 10 µM [inhibitor, partial curve, poor fit]
COc1ccc(NC(=O)CN2CCCN(S(=O)(=O)c3ccc(Br)cc3)CC2)c(OC)c1 20 µM [inhibitor, single point]
Cc1c(C)n(-c2ccccc2)c2ncnc(NCCCN(C)C)c12 28.2 µM [inhibitor, single point]
CC1=CC(C)(C)NC(=S)N1c1ccccc1C 15.8 µM [inhibitor, partial curve, poor fit]
Cc1nn(-c2ccccc2)c2ncc(C(=O)c3cc(Cl)ccc3O)cc12 28.2 µM [inhibitor, single point]
O=C(NC1CCCCCC1)c1ccc(=O)n(Cc2ccccc2)n1 14.1 µM [inhibitor, single point]
CCc1cccc2c(/C=N/NC(=O)c3cccc(S(=O)(=O)Nc4ccccc4Cl)c3)c[nH]c12 4.47 µM [inhibitor, partial curve, poor fit]
CC(C)(C)NC(=O)CN(Cc1cccs1)C(=O)C1COc2ccccc2O1 (stereo not given) 28.2 µM [inhibitor, single point]
Cc1ccc(Sc2ccc([N+](=O)[O-])cc2[N+](=O)[O-])nc1 31.6 µM [inhibitor, partial curve, poor fit]

Potency, inactive:
Cc1cc(C(=O)OCC(=O)NCCc2ccccc2)c2ccccc2n1
Cc1ccc(-n2c(C)cc(C(=O)CSc3n[nH]c(N)n3)c2C)cc1
O=C(N/N=C1\CCSc2ccc(F)cc21)c1cccnc1
CC(=O)N[C@@H]1c2c(ccc3ccccc23)OC[C@@H]1COC(C)=O
CCCCn1nnnc1C(c1ccccc1)N1CCN(c2ccccc2OC)CC1 (stereo not given)
COc1ccc(Nc2nnc(-c3cc4c(ccc5ccccc54)oc3=O)s2)cc1
c1cncc(C2SCCCS2)c1
CC1=CC(C)(C)n2c(O)c(N=NC(N)=S)c3c(C)c(C)cc1c32
C=C1C(=O)[C@]23C[C@H]1CCC2[C@@]1(C)C(C[C@@H]3O)[C@](C)(C(=O)O)CC[C@@H]1O (stereo not given in full)
Cc1ccc(S(=O)(=O)N2CCOC23CCN(S(=O)(=O)c2c(C)cc(C)cc2C)CC3)cc1
COC1CCCN(C(=O)c2ccc3oc(Cc4ccc(Cl)cc4)nc3c2)C1 (stereo not given)
Cc1ccc(-c2cc(-c3ccc4c(c3)OCO4)c(C#N)c(N)n2)o1
COc1ccc(-c2nc(C)c(CCNC(=O)C(=O)Nc3ccccc3C#N)s2)cc1OC
COc1ccc(N2CCN(S(=O)(=O)c3ccc(-n4cnnn4)c(C)c3)CC2)cc1
CC(=O)N1CCCC1c1nc2ccccc2n1Cc1cccc(Cl)c1 (stereo not given)
O=C(c1ccccc1)N1CCSC1=S
COC(=O)c1c(NC(=O)c2nc(SCc3cccc(C)c3)ncc2Cl)sc2c1CCCC2
CCOc1cc2[nH]c(=O)n(CCCC(=O)NCc3ccco3)c(=O)c2cc1OCC
COc1ccc(CCNC(=S)Nc2cccc(C)c2C)cc1
COc1ccc(CC(=O)N2CCc3ccccc32)cc1
COc1ccc(-c2cc(C(F)(F)F)nc(-n3ccnc3C)n2)cc1
CCN(Cc1ccccc1)C(=O)Cn1c(=O)n(-c2ccc(F)c(Cl)c2)c(=O)c2sc3ccccc3c21
